biological target: T1, PARP7 (amino acids 456-657) (Homo sapiens, UniProt Q7Z3E1); test: PARP7 biochemical DELFIA assay (auto-MARylation); conditions: Table 1
T1 sequence (Q7Z3E1 456-657): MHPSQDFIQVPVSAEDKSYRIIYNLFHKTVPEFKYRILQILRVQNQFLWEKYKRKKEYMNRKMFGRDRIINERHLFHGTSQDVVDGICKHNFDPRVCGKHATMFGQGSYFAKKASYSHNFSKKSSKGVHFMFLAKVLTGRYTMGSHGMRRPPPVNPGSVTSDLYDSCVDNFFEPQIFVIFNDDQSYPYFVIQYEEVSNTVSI

**Q.** How did the IC50 turn out when O=C(CCN1CCCC(c2cc(C(F)(F)F)c(=O)[nH]n2)C1)N1CCN(c2ccc(Cl)cn2)CC1 (single isomer, unassigned) [Compound 15a] was run?
**A.** 0.1 to 1 µM

**Q.** Which IC50 does the source give for O=C(CCN1CCCC(c2cc(C(F)(F)F)c(=O)[nH]n2)C1)N1CCN(c2ncc(F)cn2)CC1 (racemic) [Compound 17rac] here?
**A.** 0.1 to 1 µM

**Q.** Which IC50 does the source give for O=C(CCN1CCCC(c2cc(C(F)(F)F)c(=O)[nH]n2)C1)N1CCN(c2ccc(Cl)cn2)CC1 (single isomer, unassigned) [Compound 15b] here?
**A.** 1 to 10 µM

**Q.** How did the IC50 turn out when O=C(CCC1CCN(c2ncc(C(F)(F)F)cn2)CC1)N1CCCC(c2cc(C(F)(F)F)c(=O)[nH]n2)C1 (single isomer, unassigned) [Compound 4b] was run?
**A.** 0.1 to 1 µM

**Q.** Which IC50 does the source give for CCc1cc(C2CCCN(CCC(=O)N3CCN(c4ncc(C(F)(F)F)cn4)CC3)C2)c[nH]c1=O (racemic) [Compound 22rac, 3-ethyl-5-(1-(3-oxo-3-(4-(5-(trifluoromethyl)pyrimidin-2-yl)piperazin-1-yl)propyl)piperidin-3-yl)pyridin-2(1H)-one] here?
**A.** 0.1 to 1 µM

**Q.** With O=C(CN1CCCC(c2cc(C(F)(F)F)c(=O)[nH]n2)C1)N1CCN(c2ncc(C(F)(F)F)cn2)CC1 (single isomer, unassigned) [Compound 14a] as the molecule, how does the IC50 read?
**A.** 0.01 to 0.1 µM

**Q.** For O=C(CCN1CCN(c2ncc(C(F)(F)F)cn2)CC1)N1CCCC(c2cc(C(F)(F)F)c(=O)[nH]n2)C1 (single isomer, unassigned) [Compound 9a], which IC50 is on record?
**A.** 0.1 to 1 µM

**Q.** For O=C(CCC1CCN(c2ncc(C(F)(F)F)cn2)CC1)N1CCCC(c2cc(C(F)(F)F)c(=O)[nH]n2)C1 (single isomer, unassigned) [Compound 4a], which IC50 is on record?
**A.** 1 to 10 µM

**Q.** How did the IC50 turn out when O=C(CN1CCCC1c1cc(C(F)(F)F)c(=O)[nH]n1)N1CCN(c2ncc(C(F)(F)F)cn2)CC1 (single isomer, unassigned) [Compound 24b, 6-(1-(2-oxo-2-(4-(5-(trifluoromethyl)pyrimidin-2-yl)piperazin-1-yl)ethyl)pyrrolidin-2-yl)-4-(trifluoromethyl)pyridazin-3(2H)-one] was run?
**A.** ≤ 0.01 µM

**Q.** Which IC50 does the source give for O=C(CCN1CCCC(c2c[nH]c(=O)c(C(F)(F)F)c2)C1)N1CCN(c2ncc(C(F)(F)F)cn2)CC1 (single isomer, unassigned) [Compound 25a] here?
**A.** 0.01 to 0.1 µM

**Q.** For O=C(CCN1CCCC(c2cc(C(F)(F)F)c(=O)[nH]n2)C1)N1CCN(c2ccc(F)cn2)CC1 (single isomer, unassigned) [Compound 8a], which IC50 is on record?
**A.** 0.1 to 1 µM

same assay, conditions: Table 1A

**Q.** With O=C(CN1CCCC1c1cc(C(F)(F)F)c(=O)[nH]n1)N1CCN(c2cc(Cl)c(F)cn2)CC1 (single isomer, unassigned) [Compound 80b] as the molecule, how does the IC50 read?
**A.** ≤ 0.01 µM

**Q.** For O=C(CN1CCCC1c1cc(C(F)(F)F)c(=O)[nH]n1)N1CCN(c2ncc(F)cc2F)CC1 (single isomer, unassigned) [Compound 83b], which IC50 is on record?
**A.** 0.1 to 1 µM

**Q.** O=C(CN1CCCC1c1cc(C(F)(F)F)c(=O)[nH]n1)N1CCN(c2nc3cc(F)ccc3o2)CC1 (single isomer, unassigned) [Compound 93b] was tested. Which IC50 did it give?
**A.** 0.1 to 1 µM

**Q.** How did the IC50 turn out when CC1(C)CC(c2cc(C(F)(F)F)c(=O)[nH]n2)CN(CCC(=O)N2CCN(c3ncc(C(F)(F)F)cn3)CC2)C1 (single isomer, unassigned) [Compound 87a] was run?
**A.** 1 to 10 µM

**Q.** O=C(CN1CCN(c2ncc(C(F)(F)F)cn2)CC1)N1CCCC1c1c[nH]c(=O)c(C(F)(F)F)c1 (single isomer, unassigned) [Compound 63a] was tested. Which IC50 did it give?
**A.** 0.01 to 0.1 µM

**Q.** CNC(=O)c1ccc(N2CCN(C(=O)CN3CCCC3c3cc(C(F)(F)F)c(=O)[nH]n3)CC2)cn1 (single isomer, unassigned) [Compound 37b] was tested. Which IC50 did it give?
**A.** 1 to 10 µM

**Q.** Which IC50 does the source give for Cn1c(N2CCN(C(=O)CN3CCCC3c3cc(C(F)(F)F)c(=O)[nH]n3)CC2)nc2ccccc21 (single isomer, unassigned) [Compound 97b] here?
**A.** 0.1 to 1 µM

**Q.** Which IC50 does the source give for N#Cc1cc(F)cnc1N1CCN(C(=O)CN2CCCC2c2cc(C(F)(F)F)c(=O)[nH]n2)CC1 (single isomer, unassigned) [Compound 146a] here?
**A.** ≤ 0.01 µM

**Q.** With O=C(CN1Cc2ccccc2C1c1cc(C(F)(F)F)c(=O)[nH]n1)N1CCN(c2ncc(C(F)(F)F)cn2)CC1 (single isomer, unassigned) [Compound 104b, 6-(2-(2-oxo-2-(4-(5-(trifluoromethyl)pyrimidin-2-yl)piperazin-1-yl)ethyl)isoindolin-1-yl)-4-(trifluoromethyl)pyridazin-3(2H)-one] as the molecule, how does the IC50 read?
**A.** 0.1 to 1 µM

**Q.** With O=C(CN1CCCC1c1cc(C(F)(F)F)c(=O)[nH]n1)N1CCN(c2nc3ccc(F)cn3n2)CC1 (single isomer, unassigned) [Compound 128b] as the molecule, how does the IC50 read?
**A.** 0.1 to 1 µM

**Q.** For O=C(CN1CCCC1c1cc(C(F)(F)F)c(=O)[nH]n1)N1CC2(C1)CN(c1ncc(C(F)(F)F)cn1)C2 (single isomer, unassigned) [Compound 106b], which IC50 is on record?
**A.** 1 to 10 µM

**Q.** How did the IC50 turn out when O=C(CN1CCCC1c1cc(C(F)(F)F)c(=O)[nH]n1)N1CC2(CCN(c3ncc(C(F)(F)F)cn3)CC2)C1 (single isomer, unassigned) [Compound 110b] was run?
**A.** 0.1 to 1 µM

**Q.** How did the IC50 turn out when N#Cc1cc(C2CCCN2CC(=O)N2CCN(c3nc4cc(Cl)ccc4o3)CC2)n[nH]c1=O (single isomer, unassigned) [Compound 121b] was run?
**A.** 1 to 10 µM

**Q.** With O=C(CN1CCCC1c1cc(C(F)(F)F)c(=O)[nH]n1)NC1CCN(c2ncc(C(F)(F)F)cn2)CC1 (single isomer, unassigned) [Compound 33b] as the molecule, how does the IC50 read?
**A.** 0.1 to 1 µM

**Q.** How did the IC50 turn out when CNC(=O)c1ccc(N2CCN(C(=O)CCN3CCC(c4n[nH]c(=O)c5ccccc45)CC3)CC2)cn1 [Compound 48, N-methyl-5-(4-(3-(4-(4-oxo-3,4-dihydrophthalazin-1-yl)piperidin-1-yl)propanoyl)piperazin-1-yl)picolinamide] was run?
**A.** > 10 µM

**Q.** O=C(CN1CCCC1c1cc(C(F)(F)F)c(=O)[nH]n1)N1CCN(c2ncc(C(F)(F)F)s2)CC1 (racemic) [Compound 52rac] was tested. Which IC50 did it give?
**A.** ≤ 0.01 µM

**Q.** With N#Cc1ccc(N2CCN(C(=O)CN3CCCC3c3c[nH]c(=O)c(C(F)(F)F)c3)CC2)nc1 (single isomer, unassigned) [Compound 77b] as the molecule, how does the IC50 read?
**A.** ≤ 0.01 µM

**Q.** How did the IC50 turn out when N#Cc1ccc(N2CCN(C(=O)CN3CCCC3c3c[nH]c(=O)c(C(F)(F)F)c3)CC2)nc1 (single isomer, unassigned) [Compound 77a] was run?
**A.** 0.1 to 1 µM

**Q.** CN(c1ncc(C(F)(F)F)cn1)C1CN(C(=O)CN2CCCC2c2cc(C(F)(F)F)c(=O)[nH]n2)C1 (single isomer, unassigned) [Compound 127b] was tested. Which IC50 did it give?
**A.** 1 to 10 µM

**Q.** O=C(CN1CCCC1c1cc(C(F)(F)F)c(=O)[nH]n1)C1CCN(c2ncc(C(F)(F)F)cn2)CC1 (single isomer, unassigned) [Compound 75a] was tested. Which IC50 did it give?
**A.** ≤ 0.01 µM

**Q.** For O=C(CN1CCCC1c1cc(C(F)(F)F)c(=O)[nH]n1)N1CCN(c2ncc(F)cc2Cl)CC1 (single isomer, unassigned) [Compound 116b], which IC50 is on record?
**A.** 1 to 10 µM

**Q.** Which IC50 does the source give for O=C(CN1CCCC1c1cc(C(F)(F)F)c(=O)[nH]n1)N1CCN(c2ccc(Cl)cn2)CC1 (single isomer, unassigned) [Compound 41b] here?
**A.** 1 to 10 µM

**Q.** N#Cc1cnc(N2CCN(C(=O)CN3CCCC3c3cc(C(F)(F)F)c(=O)[nH]n3)CC2)nc1 (single isomer, unassigned) [Compound 36a] was tested. Which IC50 did it give?
**A.** ≤ 0.01 µM

**Q.** Which IC50 does the source give for N#Cc1ccc2oc(N3CCN(C(=O)CN4CCCC4c4cc(C(F)(F)F)c(=O)[nH]n4)CC3)nc2c1 (single isomer, unassigned) [Compound 100b] here?
**A.** 1 to 10 µM

**Q.** CN(c1ncc(C(F)(F)F)cn1)C1CCN(C(=O)CN2CCCC2c2cc(C(F)(F)F)c(=O)[nH]n2)CC1 (single isomer, unassigned) [Compound 107a] was tested. Which IC50 did it give?
**A.** 0.1 to 1 µM

**Q.** O=C(CN1CCCC1c1c[nH]c(=O)c(C(F)(F)F)n1)N1CCN(c2ncc(C(F)(F)F)cn2)CC1 (single isomer, unassigned) [Compound 84a, 5-(1-(2-oxo-2-(4-(5-(trifluoromethyl)pyrimidin-2-yl)piperazin-1-yl)ethyl)pyrrolidin-2-yl)-3-(trifluoromethyl)pyrazin-2(1H)-one] was tested. Which IC50 did it give?
**A.** 0.01 to 0.1 µM

**Q.** O=C(CN1CCCCC1c1cc(C(F)(F)F)c(=O)[nH]n1)N1CCN(c2ncc(C(F)(F)F)cn2)CC1 (single isomer, unassigned) [Compound 66b] was tested. Which IC50 did it give?
**A.** 1 to 10 µM

**Q.** For O=C(CN1CCCC1c1cc(C(F)(F)F)c(=O)[nH]n1)N1CCN(c2ccc(C(F)(F)F)cn2)CC1 (single isomer, unassigned) [Compound 42b], which IC50 is on record?
**A.** ≤ 0.01 µM

**Q.** O=C(CN1CCCC1c1cc(C(F)(F)F)c(=O)[nH]n1)N1CCN(c2nc3ccc(F)cc3o2)CC1 (single isomer, unassigned) [Compound 95b] was tested. Which IC50 did it give?
**A.** 0.1 to 1 µM

**Q.** For O=C(CN1CCCC1c1cc(C(F)(F)F)c(=O)[nH]n1)N1CCN(c2ccc(C(F)F)cn2)CC1 (single isomer, unassigned) [Compound 126a], which IC50 is on record?
**A.** ≤ 0.01 µM

**Q.** Which IC50 does the source give for O=C(CCN1CCC(c2n[nH]c(=O)c3ccccc23)CC1)N1CCN(c2ncc(C(F)(F)F)cn2)CC1 [Compound 49] here?
**A.** > 10 µM

**Q.** For CC(C)(C)c1cnc(N2CCN(C(=O)CN3CCCC3c3cc(C(F)(F)F)c(=O)[nH]n3)CC2)nc1 (single isomer, unassigned) [Compound 82b], which IC50 is on record?
**A.** 0.1 to 1 µM

**Q.** Which IC50 does the source give for O=C(CN1CCCC1c1cc(C(F)(F)F)c(=O)[nH]n1)N1CCN(c2nc3cc(Cl)ccc3o2)CC1 (single isomer, unassigned) [Compound 99b] here?
**A.** 0.1 to 1 µM

**Q.** With N#Cc1cc(C2CCCN2CC(=O)N2CCN(c3nc4cc(Cl)ccc4o3)CC2)n[nH]c1=O (single isomer, unassigned) [Compound 121a] as the molecule, how does the IC50 read?
**A.** 0.01 to 0.1 µM

**Q.** Which IC50 does the source give for O=C(CN1CCCC1c1c[nH]c(=O)c(Cl)c1)N1CCN(c2ncc(C(F)(F)F)cn2)CC1 (single isomer, unassigned) [Compound 78b, 3-chloro-5-(1-(2-oxo-2-(4-(5-(trifluoromethyl)pyrimidin-2-yl)piperazin-1-yl)ethyl)pyrrolidin-2-yl)pyridin-2(1H)-one] here?
**A.** 0.1 to 1 µM

**Q.** Which IC50 does the source give for CNC(=O)c1ccc(N2CCN(C(=O)CN3CCCC3c3cc(C(F)(F)F)c(=O)[nH]n3)CC2)nc1 (single isomer, unassigned) [Compound 55b] here?
**A.** ≤ 0.01 µM

Source: patent US20260193238A1, “PHARMACEUTICAL COMPOUNDS AS PARP7 AND/OR PARP1 INHIBITORS” (Duke Street Bio Limited, priority 2022, published 2026)
